The other results are listed elsewhere or left out.
How the values were obtained:
Experiment in all cases: glycan array binding signal (z-score within array); higher = stronger binding
Conditions in all cases: glycan notation: IUPAC condensed, linker removed
[1] = molecular target: 3dGal(b1-3)[Fuc(a1-4)]Glc
Method in brief: (§1)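 Glycan array binding is given as a within-array Z-score, which can be read as non-binding when negative. The arrays, 3228 of them, came from the Consortium for Functional Glycomics database and were retained only where the protein sequence was available. Z-scores were averaged across arrays of the same protein sequence at different concentrations or buffers and across linkers.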

3dGal(b1-4)Glc = molecular target: 3dGal(b1-4)Glc
Method in brief: as §1

[2] = molecular target: 4d8dNeu5Ac(a2-3)Gal(b1-4)Glc
Method in brief: as §1

[3] = molecular target: 4dNeu5Ac(a2-3)Gal(b1-4)Glc
Method in brief: as §1

[4] = molecular target: 7dNeu5Ac(a2-3)Gal(b1-4)Glc
Method in brief: as §1

[5] = molecular target: 8dNeu5Ac(a2-3)Gal(b1-4)Glc
Method in brief: as §1

[6] = molecular target: 9dNeu5Ac(a2-3)Gal(b1-4)Glc
Method in brief: as §1

[7] = molecular target: Ara(a1-5)Ara(a1-5)Ara(a1-5)Ara(a1-5)Ara(a1-5)Ara
Method in brief: as §1

[8] = molecular target: Ara(a1-5)Ara(a1-5)Ara(a1-5)Ara(a1-5)Ara(a1-5)Ara(a1-5)Ara
Method in brief: as §1

Fuc(a1-2)Gal = molecular target: Fuc(a1-2)Gal
Method in brief: as §1

Fuc(a1-2)Gal(b1-3)GalNAc = molecular target: Fuc(a1-2)Gal(b1-3)GalNAc
Method in brief: as §1

[9] = molecular target: Fuc(a1-2)Gal(b1-3)GalNAc(a1-3)[Fuc(a1-2)]Gal(b1-4)Glc
Method in brief: as §1

[10] = molecular target: Fuc(a1-2)Gal(b1-3)GalNAc(a1-3)[Fuc(a1-2)]Gal(b1-4)GlcNAc
Method in brief: as §1

[11] = molecular target: Fuc(a1-2)Gal(b1-3)GalNAc(b1-3)Gal
Method in brief: as §1

[12] = molecular target: Fuc(a1-2)Gal(b1-3)GalNAc(b1-3)Gal(a1-4)Gal(b1-4)Glc
Method in brief: as §1

[13] = molecular target: Fuc(a1-2)Gal(b1-3)GalNAc(b1-4)[Neu5Ac(a2-3)]Gal(b1-4)Glc
Method in brief: as §1

Fuc(a1-2)Gal(b1-3)GlcNAc = molecular target: Fuc(a1-2)Gal(b1-3)GlcNAc
Method in brief: as §1

[14] = molecular target: Fuc(a1-2)Gal(b1-3)GlcNAc(b1-2)Man(a1-3)[Fuc(a1-2)Gal(b1-3)GlcNAc(b1-2)Man(a1-6)]Man(b1-4)GlcNAc(b1-4)GlcNAc
Method in brief: as §1

[15] = molecular target: Fuc(a1-2)Gal(b1-3)GlcNAc(b1-2)Man(a1-3)[Fuc(a1-2)Gal(b1-3)GlcNAc(b1-2)Man(a1-6)]Man(b1-4)GlcNAc(b1-4)[Fuc(a1-6)]GlcNAc
Method in brief: as §1

[16] = molecular target: Fuc(a1-2)Gal(b1-3)GlcNAc(b1-3)Gal(b1-4)Glc
Method in brief: as §1

[17] = molecular target: Fuc(a1-2)Gal(b1-3)GlcNAc(b1-3)GalNAc
Method in brief: as §1

[18] = molecular target: Fuc(a1-2)Gal(b1-3)GlcNAc(b1-3)[Fuc(a1-2)Gal(b1-3)GlcNAc(b1-6)]GalNAc
Method in brief: as §1

[19] = molecular target: Fuc(a1-2)Gal(b1-3)GlcNAc(b1-3)[Fuc(a1-3)[Gal(b1-4)]GlcNAc(b1-6)]Gal(b1-4)Glc
Method in brief: as §1

[20] = molecular target: Fuc(a1-2)Gal(b1-3)GlcNAc(b1-3)[Gal(b1-4)GlcNAc(b1-6)]Gal(b1-4)Glc
Method in brief: as §1

[21] = molecular target: Fuc(a1-2)Gal(b1-3)GlcNAc(b1-3)[Neu5Ac(a2-6)Gal(b1-4)GlcNAc(b1-6)]Gal(b1-4)Glc
Method in brief: as §1

[22] = molecular target: Fuc(a1-2)Gal(b1-3)GlcNAc6S
Method in brief: as §1

[23] = molecular target: Fuc(a1-2)Gal(b1-3)[Fuc(a1-4)]GlcNAc
Method in brief: as §1

[24] = molecular target: Fuc(a1-2)Gal(b1-3)[Fuc(a1-4)]GlcNAc(b1-2)Man(a1-3)[Fuc(a1-2)Gal(b1-3)[Fuc(a1-4)]GlcNAc(b1-2)Man(a1-3)]Man(b1-4)GlcNAc(b1-4)GlcNAc
Method in brief: as §1

[25] = molecular target: Fuc(a1-2)Gal(b1-3)[Fuc(a1-4)]GlcNAc(b1-2)Man(a1-3)[Fuc(a1-2)Gal(b1-3)[Fuc(a1-4)]GlcNAc(b1-2)Man(a1-6)]Man(b1-4)GlcNAc(b1-4)GlcNAc
Method in brief: as §1

[26] = molecular target: Fuc(a1-2)Gal(b1-3)[Fuc(a1-4)]GlcNAc(b1-2)Man(a1-3)[Fuc(a1-2)Gal(b1-3)[Fuc(a1-4)]GlcNAc(b1-2)Man(a1-6)]Man(b1-4)GlcNAc(b1-4)[Fuc(a1-6)]GlcNAc(b1-4)[Fuc(a1-6)]GlcNAc
Method in brief: as §1

B1: CLEC5A (Homo sapiens), Q9NY25 (protein)
chain: MNWHMIISGLIVVVLKVVGMTLFLLYFPQIFNKSNDGFTTTRSYGTVSQIFGSSSPSPNGFITTRSYGTVCPKDWEFYQARCFFLSTSESSWNESRDFCKGKGSTLAIVNTPEKLKFLQDITDAEKYFIGLIYHREEKRWRWINNSVFNGNVTNQNQNFNCATIGLTKTFDAASCDISYRRICEKNAK
glycan array binding signal (z-score) [1]: -0.32
glycan array binding signal (z-score) (3dGal(b1-4)Glc): -0.32
glycan array binding signal (z-score) [2]: -0.32
glycan array binding signal (z-score) [3]: -0.32
glycan array binding signal (z-score) [4]: 1.51
glycan array binding signal (z-score) [5]: -0.32
glycan array binding signal (z-score) [6]: -0.32
glycan array binding signal (z-score) [7]: 0.258
glycan array binding signal (z-score) [8]: 0.162
glycan array binding signal (z-score) (Fuc(a1-2)Gal): -0.17
glycan array binding signal (z-score) (Fuc(a1-2)Gal(b1-3)GalNAc): -0.25
glycan array binding signal (z-score) [9]: -0.276
glycan array binding signal (z-score) [10]: -0.243
glycan array binding signal (z-score) [11]: 0.222
glycan array binding signal (z-score) [12]: 0.089
glycan array binding signal (z-score) [13]: -0.178
glycan array binding signal (z-score) (Fuc(a1-2)Gal(b1-3)GlcNAc): -0.219
glycan array binding signal (z-score) [14]: 0.119
glycan array binding signal (z-score) [15]: -0.121
glycan array binding signal (z-score) [16]: -0.205
glycan array binding signal (z-score) [17]: -0.081
glycan array binding signal (z-score) [18]: -0.056
glycan array binding signal (z-score) [19]: 0.22
glycan array binding signal (z-score) [20]: -0.202
glycan array binding signal (z-score) [21]: -0.149
glycan array binding signal (z-score) [22]: -0.112
glycan array binding signal (z-score) [23]: -0.289
glycan array binding signal (z-score) [24]: 0.282
glycan array binding signal (z-score) [25]: 0.798
glycan array binding signal (z-score) [26]: -0.042
